Experimental data taken from the supplement of paper PMC6206098.
± gives the uncertainty stated by the source. The sequences are guide strands of siRNAs; only the seed at positions 2 to 7 varies.

Key:
[1] = system: 3LL; assay: cell viability relative to siNT1 control; higher = less toxic; conditions: concentration: 10 nM; 96 h; Mus musculus;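 also: Luminescence-based viability of cells reverse transfected in 384-well plates with lipid-complexed siRNAs built on a non-toxic 19mer backbone whose passenger strand carries 2′-O-methyl groups at positions 1 and 2, triplicates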
[2] = system: M565; assay: cell viability relative to lipid-only control; HeyA8 human ovarian and H460 human lung cancer; M565 mouse liver and 3LL mouse lung cancer; siNT1 is a non-toxic control siRNA; higher = less toxic; conditions: concentration: 10 nM; 96 h; Mus musculus
Experimental: (§1)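 Arrayed screen of 4096 siRNA duplexes, each carrying one of all possible 6mer seeds at guide-strand positions 2-7 in a fixed neutral 19mer scaffold (constant flanks: U at position 1, then ACAUGUAAACCA, plus a 3' AA overhang). The passenger strand is 2'-O-methylated at positions 1-2 so only the guide strand loads into RISC. Duplexes were reverse-transfected at 10 nM with RNAiMAX in triplicate in 384-well plates; viability was read by CellTiter-Glo ATP content 96 h after transfection. Values are % viability normalised to lipid-only wells (HeyA8, H460, M565) or to siNT1 (3LL).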

[3] = system: HeyA8; assay: as above; conditions: concentration: 10 nM; 96 h; Homo sapiens
Experimental: as §1

[4] = system: H460; assay: as above; conditions: concentration: 10 nM; 96 h; Homo sapiens
Experimental: as §1
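For cell viability relative to lipid-only control in this document: reverse lipid transfection in 384-well plates, in triplicate, of duplexes on a non-toxic 19mer backbone with passenger strand 2′-O-methylated at positions 1 and 2, luminescence viability read-out.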

Row | Sequence | cell viability [1] | cell viability [2] | cell viability [3] | cell viability [4]
1 | UGCGUUAACAUGUAAACCAAA | 97.2 ± 13% | 76.83 ± 0.6% | 95.1 ± 12% | 89 ± 11%
2 | UUGUUCGACAUGUAAACCAAA | 99.1 ± 3.4% | 39.7 ± 4.9% | 71.4 ± 6.5% | 68.2 ± 6.2%
3 | UCGAUCAACAUGUAAACCAAA | 92 ± 17% | 54.8 ± 2.7% | 91.1 ± 4.7% | 84.6 ± 14%
4 | UCGAAUAACAUGUAAACCAAA | 88.7 ± 24% | 76.2 ± 8.5% | 83.3 ± 5.7% | 63.3 ± 7.1%
5 | UGUACCCACAUGUAAACCAAA | 12.1 ± 3.8% | 7.81 ± 1.8% | 21.8 ± 2.2% | 24.7 ± 2.2%
6 | UUGUAUCACAUGUAAACCAAA | 35.2 ± 1% | 58.6 ± 6.7% | 8.57 ± 0.39% | 31.5 ± 1.4%
7 | UAUUUGGACAUGUAAACCAAA | 97.3 ± 16% | 32.3 ± 4.7% | 91.7 ± 6% | 71.4 ± 8%
8 | UUCUAUAACAUGUAAACCAAA | 97 ± 9.1% | 81.6 ± 12% | 97.5 ± 2.3% | 64.6 ± 7.3%
9 | UCCGGGAACAUGUAAACCAAA | 102 ± 15% | 61.7 ± 10% | 78.3 ± 5.7% | 63.3 ± 1.6%
10 | UAGGACAACAUGUAAACCAAA | 87.1 ± 3% | 71.2 ± 4.1% | 67.6 ± 6.4% | 61.1 ± 4.1%
11 | UUCGAAGACAUGUAAACCAAA | 104 ± 11% | 82.9 ± 8.8% | 89 ± 10% | 71.9 ± 14%
12 | UCUUUAAACAUGUAAACCAAA | 90.4 ± 17% | 52.1 ± 12% | 83.9 ± 7.7% | 83 ± 3%
13 | UUAACGCACAUGUAAACCAAA | 39.4 ± 4.9% | 37.4 ± 5.2% | 90 ± 6.8% | 81.4 ± 7%
14 | UUCCCGGACAUGUAAACCAAA | 72.3 ± 22% | 55.4 ± 7.3% | 78.2 ± 2.2% | 57.3 ± 3%
15 | UGUCCCAACAUGUAAACCAAA | 30.3 ± 2.7% | 3.82 ± 2.4% | 18.2 ± 1.1% | 34.9 ± 4.5%
16 | UGCUAUGACAUGUAAACCAAA | 89.6 ± 16% | 110 ± 1.6% | 65.4 ± 6.1% | 58.9 ± 1.1%
17 | UUCAGUUACAUGUAAACCAAA | 45.1 ± 8.9% | 24.1 ± 6.7% | 69.9 ± 7.3% | 46.6 ± 2.4%
18 | UGCGUACACAUGUAAACCAAA | 92.3 ± 13% | 78.9 ± 2.9% | 75.7 ± 5.4% | 72.1 ± 4.6%
19 | UAUUAGUACAUGUAAACCAAA | 111 ± 24% | 85.6 ± 8.9% | 83 ± 4.2% | 69.6 ± 5.1%
20 | UGUGGGAACAUGUAAACCAAA | 15.9 ± 3.6% | 36.2 ± 5.7% | 16.4 ± 1.5% | 28.5 ± 0.71%
21 | UUGACGCACAUGUAAACCAAA | 64.7 ± 2.4% | 72.9 ± 12% | 93.2 ± 8% | 66.5 ± 6%
22 | UUCCUGAACAUGUAAACCAAA | 102 ± 18% | 117 ± 22% | 90.5 ± 11% | 78.7 ± 3%

Row | Sequence | cell viability [1] | cell viability [2] | cell viability [3] | cell viability [4]
23 | UAGAUGAACAUGUAAACCAAA | 84.9 ± 9.5% | 55.3 ± 7.8% | 78.9 ± 8.3% | 91.7 ± 20%
24 | UUCAUCUACAUGUAAACCAAA | 32.9 ± 11% | 41.5 ± 9.5% | 27 ± 4.1% | 51.6 ± 3.3%
25 | UUUGCAUACAUGUAAACCAAA | 94.3 ± 1.3% | 104 ± 7.6% | 93.7 ± 1.9% | 82.1 ± 11%
26 | UCCCGGCACAUGUAAACCAAA | 52.4 ± 7.8% | 40.9 ± 12% | 10.3 ± 3.2% | 49.5 ± 4.2%
27 | UGGCAACACAUGUAAACCAAA | 32.1 ± 2.9% | 22.2 ± 3.4% | 50.21 ± 0.33% | 54.3 ± 3.3%
28 | UUUCACUACAUGUAAACCAAA | 74.1 ± 6.8% | 86.5 ± 7.7% | 82.7 ± 3.3% | 29.4 ± 5.5%
29 | UUUGUUAACAUGUAAACCAAA | 103 ± 2.2% | 95.5 ± 12% | 92 ± 9.7% | 100 ± 4.7%
30 | UUGCAACACAUGUAAACCAAA | 9.23 ± 4% | 67.5 ± 0.95% | 18 ± 2.7% | 16.3 ± 3.4%
31 | UACUGCUACAUGUAAACCAAA | 41.9 ± 5.5% | 28.4 ± 6.2% | 26.5 ± 3.7% | 54.7 ± 5.8%
32 | UAAGAAGACAUGUAAACCAAA | 86.1 ± 12% | 76.1 ± 2.7% | 94 ± 6.6% | 61.7 ± 4.2%
33 | UCUUAGUACAUGUAAACCAAA | 90.4 ± 15% | 52.9 ± 7.5% | 71.8 ± 7.2% | 62 ± 3.9%
34 | UAACUAGACAUGUAAACCAAA | 90.6 ± 4.8% | 72.1 ± 4.9% | 81.4 ± 14% | 66.3 ± 15%
35 | UAUGGUAACAUGUAAACCAAA | 113 ± 11% | 72.7 ± 15% | 94 ± 6.3% | 86.5 ± 15%
36 | UGAUUCCACAUGUAAACCAAA | 36.5 ± 8.6% | 22.2 ± 2.7% | 15.3 ± 1.8% | 27.7 ± 2.7%
37 | UAGGAUGACAUGUAAACCAAA | 81.8 ± 0.93% | 34.5 ± 7.4% | 78.3 ± 11% | 59.4 ± 3%
38 | UUUUGACACAUGUAAACCAAA | 85.9 ± 5.4% | 77.2 ± 13% | 50.2 ± 4.7% | 61.1 ± 7.3%
39 | UGAUGGUACAUGUAAACCAAA | 33.8 ± 12% | 29.6 ± 9.3% | 62.1 ± 8.9% | 58.7 ± 3.5%
40 | UAACCAGACAUGUAAACCAAA | 87 ± 11% | 20.5 ± 4.8% | 98 ± 3.2% | 80.6 ± 12%
41 | UUUAGACACAUGUAAACCAAA | 81.1 ± 6.6% | 68.6 ± 5.6% | 95.7 ± 4.5% | 82 ± 7.4%
42 | UUAUUAUACAUGUAAACCAAA | 41.6 ± 1.7% | 97.6 ± 12% | 86.7 ± 3.4% | 68.2 ± 9.4%
43 | UGGACAUACAUGUAAACCAAA | 79.8 ± 3.4% | 15.4 ± 6.2% | 64.3 ± 5.6% | 54.1 ± 5.4%
44 | UCGAGUAACAUGUAAACCAAA | 91.8 ± 22% | 76.8 ± 7.7% | 95.1 ± 5.2% | 87.5 ± 16%
